# Results from article PMC4336329 (PLoS ONE, 2015).
# The whole screen tested about 310,000 compounds, of which about 2,200 (0.71%) showed an effect of 50% or more. Effects have a minus sign here. The list shows a part of the results.
# Target: human ether-à-go-go-related gene (hERG) potassium channel (human, UniProt Q12809)
# Test: primary screen, population patch clamp on CHO cells stably expressing hERG
# human ether-à-go-go-related gene (hERG) potassium channel, sequence (Q12809 whole entry, looked up): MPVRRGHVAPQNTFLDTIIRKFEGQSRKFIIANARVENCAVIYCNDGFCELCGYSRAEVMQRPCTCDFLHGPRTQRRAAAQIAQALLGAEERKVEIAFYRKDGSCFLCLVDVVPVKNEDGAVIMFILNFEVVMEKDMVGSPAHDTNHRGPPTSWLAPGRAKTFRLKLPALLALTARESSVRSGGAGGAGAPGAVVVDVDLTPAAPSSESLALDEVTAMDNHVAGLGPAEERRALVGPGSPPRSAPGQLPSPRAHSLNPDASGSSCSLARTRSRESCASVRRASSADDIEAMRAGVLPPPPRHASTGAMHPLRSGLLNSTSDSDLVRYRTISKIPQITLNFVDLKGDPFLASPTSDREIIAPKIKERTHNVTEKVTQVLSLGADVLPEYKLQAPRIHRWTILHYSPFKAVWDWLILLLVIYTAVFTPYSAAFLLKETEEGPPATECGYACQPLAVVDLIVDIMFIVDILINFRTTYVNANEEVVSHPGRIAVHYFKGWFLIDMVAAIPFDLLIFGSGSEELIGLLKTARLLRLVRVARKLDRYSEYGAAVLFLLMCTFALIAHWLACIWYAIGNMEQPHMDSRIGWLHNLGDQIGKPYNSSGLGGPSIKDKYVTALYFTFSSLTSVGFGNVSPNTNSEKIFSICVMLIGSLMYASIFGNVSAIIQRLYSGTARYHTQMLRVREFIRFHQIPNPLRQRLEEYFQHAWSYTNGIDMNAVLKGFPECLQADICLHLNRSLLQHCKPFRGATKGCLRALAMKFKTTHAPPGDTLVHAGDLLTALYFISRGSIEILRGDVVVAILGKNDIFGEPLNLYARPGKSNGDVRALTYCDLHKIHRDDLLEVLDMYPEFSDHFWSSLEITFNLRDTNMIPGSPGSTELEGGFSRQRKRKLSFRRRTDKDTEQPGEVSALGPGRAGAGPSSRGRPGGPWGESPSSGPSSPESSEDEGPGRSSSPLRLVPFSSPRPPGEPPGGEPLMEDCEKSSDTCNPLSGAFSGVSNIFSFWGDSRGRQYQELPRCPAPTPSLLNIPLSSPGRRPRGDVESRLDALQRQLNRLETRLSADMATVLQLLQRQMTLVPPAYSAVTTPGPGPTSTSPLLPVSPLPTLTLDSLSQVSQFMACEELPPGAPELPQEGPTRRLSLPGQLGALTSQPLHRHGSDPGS
row,SMILES,"hERG current change (%, negative = inhibition) at 1uM"
1,Cc1c(NC(=O)C(C)N2C(=O)C3CCCCC3C2=O)c(=O)n(-c2ccccc2)n1C (stereo not shown),8.81%
2,Cc1ccc(S(=O)(=O)Oc2ccc(/C=C3\C(=N)N4N=C(S(C)(=O)=O)SC4=NC3=O)cc2)cc1,5.75%
3,CC(=O)c1sc(Nc2cccc(C)c2)nc1C,8.75%
4,COc1ccc(NC(=O)C(Br)C(C)C)cc1 (stereo not shown),14.8%
5,COc1ccc2cc(S(=O)(=O)N3CCCC3)ccc2c1,12.5%
6,C/C(=N\NC(=O)c1ccc(NS(=O)(=O)c2cccs2)cc1)c1ccccn1,8.15%
7,OC(c1ccccc1)c1nc2ccccc2[nH]1 (stereo not shown),16.5%
8,COC(=O)N/N=C\c1ccc(OC/C=C/c2ccccc2)cc1,11.3%
9,Cc1ccc(NC(=O)CN(C)C(=O)C(C)OC(=O)c2ccccc2NCCO)cc1 (stereo not shown),13.3%
10,Cc1cccc(NC(=O)CSc2nc(N)c(NC(=O)c3ccccc3F)c(=O)[nH]2)c1,13.9%
11,Cc1cc(C)c(N2C(=O)CCCC2=O)c(Cl)c1,16.9%
12,CC(=O)Nc1cc(Br)ccc1O,10.2%
13,Cc1ccc(C)c(NC(=S)N2CCC(NC(=O)c3cccc(F)c3)CC2)c1,11.6%
14,O=C(c1ccccc1)c1cc([N+](=O)[O-])ccc1N1CCCC1,12.2%
15,C[C@H](NC(=O)COc1ccc(Cl)cc1)C(=O)N1CCC2(CC1)NCCc1[nH]cnc12,18.8%
16,CC(=O)Oc1ccc(C(=O)O)cc1OC(C)=O,8.81%
17,COc1cccc(NC(=O)Cn2c(=O)n(-c3cc(OC)c(OC)c(OC)c3)c(=O)c3ccccc32)c1,4.96%
18,Cc1ccc(-c2noc(CN(C)C(=O)c3ccoc3C)n2)cc1,9.37%
19,CC(C(=O)O)c1ccc2c(c1)[nH]c1ccc(Cl)cc12 (stereo not shown),20.5%
20,O=C(COC(=O)COc1cccc(C(F)(F)F)c1)Nc1ccc(N2CCOCC2)cc1,9.13%
21,O=C(Nc1ccno1)Nc1ccc(Cl)cc1Cl,10.6%
22,CC(CN1CCN(C)CC1)OC(=O)c1ccc(Cl)cc1Cl.Cl (stereo not shown),-3.28%

row,SMILES,"hERG current change (%, negative = inhibition) at 1uM"
1,O=C(COC(=O)c1cccc([N+](=O)[O-])c1)NCC1CCCO1 (stereo not shown),8.29%
2,O=C(NCCN1CCOCC1)c1cc(-c2ccc(Cl)c(Cl)c2)on1,2.54%
3,Cc1cc(C)nc(N(C#N)Cc2ccccc2C)n1,-26.4%
4,Cc1ccc(S(=O)(=O)NNC(=O)c2c(O)c3ccccc3[nH]c2=O)cc1,11.2%
5,C/C(Cl)=C\Cn1c(Nc2ccc(C)cc2)nc2c1c(=O)n(C)c(=O)n2C,10.4%
6,CC1CCC/C(=C\Nc2ccccc2C(=O)O)C1=O (stereo not shown),-5.84%
7,CS(=O)(=O)N(CC(=O)N1CCCC1)c1ccccc1F,13.3%
8,Cc1cc(OCC(=O)NCC(O)c2ccccc2)c2c3c(c(=O)oc2c1)CCC3 (stereo not shown),20.9%
9,COc1cccc(NC(=S)N(CCN(C)C)Cc2cccs2)c1,-2.49%
10,CCC1(c2ccccc2)NC(=O)N(CC(=O)NNC(=O)c2ccoc2C)C1=O (stereo not shown),4.5%
11,COc1ccc(-c2nnc(SC(C(=O)c3c[nH]c4ccccc34)c3ccccc3)n2N)cc1OC (stereo not shown),14%
12,COc1ccc2nc(NC(=O)C3CCCN(S(=O)(=O)c4cccc5nonc45)C3)sc2c1 (stereo not shown),12%
13,COc1ccc(CCNC(=O)CN(c2ccc(OC)c(OC)c2)S(=O)(=O)c2ccc(C)cc2)cc1,6.49%
14,CCC(=NCc1ccco1)c1c(C(F)(F)F)[nH]n(-c2nc3ccccc3s2)c1=O,7.52%
15,Cc1cc(C(=O)OCC(=O)Nc2ccc(F)cc2)c(C)o1,2.11%
16,CCNC(=S)N(C)CCc1cc2c(c(OC)c1C=C1C(=O)N(C)C(=O)N(C)C1=O)OCO2,12.5%
17,Nc1ccnc(=O)[nH]1,13.8%
18,CC1CC(=O)C2=C(C1)Nc1ccccc1N=C2 (stereo not shown),10.6%
19,Cc1cc(/C=N/n2cnnc2)c(C)n1-c1ccc(OCc2ccc(Cl)cc2Cl)cc1,10.2%
20,CCOCCn1c(=NC(=O)c2cc3ccccc3oc2=O)sc2cc(S(N)(=O)=O)ccc21,-30.2%
21,O=C1NCCCCC1NS(=O)(=O)c1ccccc1 (stereo not shown),13.5%
22,CCn1c(COc2ccccc2C(N)=O)nc2ccccc21,9.95%

row,SMILES,"hERG current change (%, negative = inhibition) at 1uM"
1,O=C(Cc1ccc(Cl)cc1)Nc1ccccc1C(=O)N1CCCCC1,-6.78%
2,Cc1ccccc1Cn1nc(C)c(NC(=O)c2nc3n(n2)C(C(F)F)CC(C)N3)c1C (stereo not shown),11%
3,Cc1ccccc1-n1ncc2c1CC(C)(C)CC2NC(=O)CCN1CCCCC1=O (stereo not shown),14.2%
4,CCOc1ccc(/C=N/Nc2cc(C)nc(N3CCOCC3)n2)cc1,10.7%
5,CCOP(=O)(OCC)C(Nc1cccc([N+](=O)[O-])c1)c1ccc(OC)cc1 (stereo not shown),8.66%
6,CCN1CCN(S(=O)(=O)c2ccc(Cl)c(C(=O)Nc3ccc(OC(F)F)cc3)c2)CC1,-10.5%
7,O=C(O)c1ccc(S(=O)(=O)c2ccc(Sc3ccc(C(=O)O)c(C(=O)O)c3)cc2)cc1,21.8%
8,Cn1c(CCNC(=O)c2ccco2)nc2cc([N+](=O)[O-])ccc21,-7.75%
9,COc1cc(S(=O)(=O)N2CCN(c3ccccc3F)CC2)c(OC)cc1Cl,3.35%
10,CN(C)c1ccc(C2Nc3ccccc3C(=O)N2NS(C)(=O)=O)cc1 (stereo not shown),15.5%
11,O=C(c1ccc(S(=O)(=O)NCc2ccco2)cc1)N1CCN(c2ccc(F)cc2)CC1,-21.5%
12,Cc1cc(CSCc2ccc(Cl)cc2)no1,19%
13,Cc1nn(CC(=O)N2CCC(C)CC2)c(=O)c2cccn12,18.5%
14,CCOC(=O)[C@H]1[C@H]2COc3ccccc3[C@@H]2N2C(=O)c3ccccc3NC(=O)[C@@]12C,11.7%
15,CCC(C)c1ccccc1NC(=O)CN(C)CC(=O)Nc1ccccc1SC (stereo not shown),10.2%
16,O=C(COC(=O)c1cncc(Br)c1)NCc1ccc(Cl)cc1,17.7%
17,CCOc1ccccc1-n1c(O)c(C=Nc2ccc(N(CC)CC)cc2)c(=O)[nH]c1=O,6.76%
18,CCOc1ccc(CC2CC(=O)NC2=O)cc1 (stereo not shown),10.1%
19,COC(=O)C1C2c3ccccc3C(c3ccccc32)C1C(=O)OC (stereo not shown),7.4%
20,COCCNC(=O)CN(C(=O)CCC(=O)Nc1nccs1)c1ccc2c(c1)OCO2,12.7%
21,O=C(COC(=O)C1CCN(S(=O)(=O)c2ccccc2)CC1)NCCc1ccccc1,7.83%
22,Cc1ccc2[nH]c(=O)c(CN(C)C(=O)c3ccccn3)cc2c1,13%

row,SMILES,"hERG current change (%, negative = inhibition) at 1uM"
1,O=C(NN1CCOCC1)c1cc(Cl)ccc1Cl,12.9%
2,Nc1nonc1C(=O)NCCNC(=O)c1cccs1,-4.76%
3,COc1ccc(CCNC(=O)C2CCC(C(C)(C)C)CC2)cc1OC (stereo not shown),13%
4,CN1C(=O)C(O)(CC(=O)c2ccncc2)c2ccccc21 (stereo not shown),7.69%
5,C/C(=N/NC(=O)c1ccccc1)C1=C(O)CC(C)(C)CC1=O,14.4%
6,N#CCCn1cc(C=C(C#N)C#N)c(-c2ccc(-c3ccccc3)cc2)n1,12%
7,CCCN(CCC)CCCNC(=O)c1cn(CC)c2ccc(S(=O)(=O)N3CCOCC3)cc2c1=O,14.1%
8,CCOc1ccccc1NC(=O)C1CCN(S(=O)(=O)c2c(C)nn(C)c2C)CC1,0.895%
9,Cc1ccc(C(=O)NN2CC(O)=C(c3nc(-c4cccc([N+](=O)[O-])c4)cs3)C2=N)cc1,5.9%
10,CC(Sc1nc(-c2ccc(F)cc2)cs1)C(=O)N1c2ccccc2CC1C (stereo not shown),10.6%
11,C=CCNC(=O)CN1CCC(n2nnc3cc(C(F)(F)F)ccc32)CC1,-0.772%
12,O=C(CCc1ccccc1)Nc1ccc(F)cc1F,-15.5%
13,CCCCNC(=O)CSc1nc2cc3c(cc2c(=O)n1CCC(=O)NCCc1ccc(OC)c(OC)c1)OCO3,11.3%
14,Cc1oc2c(CN3CCCCC3)c(O)ccc2c(=O)c1-c1ccc(Br)cc1,10.8%
15,CC(=O)Nc1ccc(NC(=O)CN(C)S(=O)(=O)c2ccc3ccccc3c2)cc1,10.2%
16,CC(C)c1cc(C(=O)N2CCN(C(c3ccccc3)c3ccccc3)CC2)no1,-0.622%
17,Cc1ccc(C)c(SCC(=O)NC(=O)Nc2ccc3c(c2)OCCO3)c1,6.19%
18,Cc1cccc(CSc2nc3ccccc3c(=O)n2C)c1,2.06%
19,CC1C(=O)Nc2ccc(S(=O)(=O)N3CCCCCC3)cc21 (stereo not shown),11.5%
20,CC(=O)c1cccc(NC(=O)c2sc3nc4n(c(=O)c3c2C)CCCCC4)c1,2.97%
21,COc1ccc(-n2nnnc2SCC(=O)Nc2nnn(C)n2)cc1,-4.75%
22,COCCNC(=O)CN(C(=O)CCC(=O)Nc1ccccn1)c1ccc(F)cc1,14.7%
